# According to US20040131615A1, “Methods for treating pain by administering a nerve growth factor antagonist and an opioid analgesic and compositions containing the same” (priority 2002, published 2004):
# Molecular target: human NGF (Homo sapiens, UniProt P01138)
# Experiment: Binding affinity (KD) of anti-NGF antibody to human NGF; BIAcore surface plasmon resonance of Fab fragments described
# Description: One way of determining binding affinity of antibodies to NGF is by measuring affinity of monofunctional Fab fragments of the antibody. To obtain monofunctional Fab fragments, an antibody (for example, IgG) can be cleaved with papain or expressed recombinantly. The affinity of an anti-NGF Fab fragment of an antibody can be determined by surface plasmon resonance (BIAcore3000™ surface plasmon resonance (SPR) system, BIAcore, INC, Piscaway N.J.). CM5 chips can be activated with N-ethyl-N′-(3-dimethylaminopropyl)-carbodiinide hydrochloride (EDC) and N-hydroxysuccinimide (NHS) according to the supplier's instructions. Human NGF can be diluted into 10 mM sodium acetate pH 4.0 and injected over the activated chip at a concentration of 0.005 mg/mL. Using variable flow time across the individual chip channels, two ranges of antigen density can be achieved: 100-200 response units (RU) for detailed kinetic studies and 500-600 RU for screening assays. The chip can be blocked with ethanolamine. […] The concentrations of the Fab proteins are determined by ELISA and/or SDS-PAGE electrophoresis using a Fab of known concentration (as determined by amino acid analysis) as a standard. […] Equilibrium dissociation constant (KD) values can be calculated as koff/kon. […]
# human NGF, sequence (P01138 122-241): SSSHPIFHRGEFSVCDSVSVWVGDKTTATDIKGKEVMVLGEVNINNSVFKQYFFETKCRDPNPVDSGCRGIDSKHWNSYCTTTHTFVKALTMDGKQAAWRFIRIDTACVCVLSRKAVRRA
molecule,measurement,value
"E3: Humanized mouse anti-NGF monoclonal antibody; mutated human IgG2a heavy chain constant region, human kappa, variable regions SEQ ID NO:1 and 2 (antibody, chains of the INN, looked up) heavy: QVQLQESGPGLVKPSETLSLTCTVSGFSLIGYDLNWIRQPPGKGLEWIGIIWGDGTTDYNSAVKSRVTISKDTSKNQFSLKLSSVTAADTAVYYCARGGYWYATSYYFDYWGQGTLVTVSSASTKGPSVFPLAPCSRSTSESTAALGCLVKDYFPEPVTVSWNSGALTSGVHTFPAVLQSSGLYSLSSVVTVPSSNFGTQTYTCNVDHKPSNTKVDKTVERKCCVECPPCPAPPVAGPSVFLFPPKPKDTLMISRTPEVTCVVVDVSHEDPEVQFNWYVDGVEVHNAKTKPREEQFNSTFRVVSVLTVVHQDWLNGKEYKCKVSNKGLPSSIEKTISKTKGQPREPQVYTLPPSREEMTKNQVSLTCLVKGFYPSDIAVEWESNGQPENNYKTTPPMLDSDGSFFLYSKLTVDKSRWQQGNVFSCSVMHEALHNHYTQKSLSLSPG light: DIQMTQSPSSLSASVGDRVTITCRASQSISNNLNWYQQKPGKAPKLLIYYTSRFHSGVPSRFSGSGSGTDFTFTISSLQPEDIATYYCQQEHTLPYTFGQGTKLEIKRTVAAPSVFIFPPSDEQLKSGTASVVCLLNNFYPREAKVQWKVDNALQSGNSQESVTEQDSKDSTYSLSSTLTLSKADYEKHKVYACEVTHQGLSSPVTKSFNRGEC",Kd,~0.07 nM
